From the supplement of paper PMC10126150
Values marked as one replicate rest on one cluster of the flow cell; about a third of the high ones do not repeat.
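Note: ATP exposure 15 min at 22 °C before imaging.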

Each sequence was assayed on ATP (assay: switch fluorescence ratio, 500 uM ATP over buffer (Cy3 cluster intensity, sum of 5 cycles each) (fold (ratio)); higher = stronger signal-on switching upon ATP binding; sequences stand for … in TCGTCGGCAGCGTCAGATGTGTATAAGAGACAGTTTTTTTTTTTTTTTTTTTTTTTTT…TC). Conditions: aptamer strand: ATP DNA aptamer (quencher-CACCTGGGGGAGTATTGCGGAGGAAGG + anchor), 100 nM annealed; ATP concentration: 500 uM; one replicate.
How it was run: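 The fluorescence ratio divides summed target-cycle Cy3 intensity by summed buffer-cycle Cy3 intensity for each cluster and is averaged per switch-domain sequence. Cy3-labelled switching-strand clusters on a modified Illumina MiSeq flow-cell were annealed to 100 nM quencher-labelled ATP aptamer, then imaged in selection buffer and again after 15 min with 500 uM ATP at 22 °C. Five such cycles were run, with NaOH stripping and re-annealing between them, and clusters outside 100-1000 RFU were excluded.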
AGACTGCAGG showed a switch fluorescence ratio of 1.04. AGACTGGGAC gave a switch fluorescence ratio of 1.01. With AGAGACATCC the switch fluorescence ratio was 1.02. Sequence AGAGACCCAT has a switch fluorescence ratio of 0.979. AGAGACCCCC was tested, and the switch fluorescence ratio was 1.1. In the case of AGAGACTCAG, the switch fluorescence ratio is reported as 1.02. AGAGAGATAG showed a switch fluorescence ratio of 0.967. Sequence AGAGAGTCGT has a switch fluorescence ratio of 1.01. Work on AGAGATTAAA yielded a switch fluorescence ratio of 1.01. AGAGATTATG was tested, and the switch fluorescence ratio was 0.995. AGAGCACCAG showed a switch fluorescence ratio of 1.05. Sequence AGAGCACGGT has a switch fluorescence ratio of 0.997. AGAGCCTGTG showed a switch fluorescence ratio of 0.951. AGAGCGTTGA gave a switch fluorescence ratio of 1.08. AGAGGACAGC gave a switch fluorescence ratio of 1.02. Sequence AGAGGAGGAA has a switch fluorescence ratio of 0.983. AGAGGATCAT showed a switch fluorescence ratio of 0.94. AGAGGATTGT showed a switch fluorescence ratio of 0.973. Sequence AGAGGC has a switch fluorescence ratio of 1.09. In the case of AGAGGCAGG, the switch fluorescence ratio is reported as 1.02. AGAGGCCAAA was tested, and the switch fluorescence ratio was 0.981. Sequence AGAGGTACCA has a switch fluorescence ratio of 1.02. Sequence AGAGGTTCGT has a switch fluorescence ratio of 0.962. With AGAGGTTGTG the switch fluorescence ratio was 1. AGAGTACGAT showed a switch fluorescence ratio of 1.03. Sequence AGAGTAGCGT has a switch fluorescence ratio of 0.994. Work on AGAGTAGCTC yielded a switch fluorescence ratio of 1.05. AGAGTATTAC gave a switch fluorescence ratio of 1.02. For AGAGTATTG, the switch fluorescence ratio was 0.965. AGAGTCCCAA gave a switch fluorescence ratio of 1.06. For AGAGTCCGAA, the switch fluorescence ratio was 1.01. For AGAGTGCTCT, the switch fluorescence ratio was 0.959. AGAGTGGCGA showed a switch fluorescence ratio of 1.01. For AGATAAAACA, the switch fluorescence ratio was 0.98. In the case of AGATAAAATC, the switch fluorescence ratio is reported as 0.984. In the case of AGATAAGATG, the switch fluorescence ratio is reported as 0.972. With AGATAATGTG the switch fluorescence ratio was 1.04. AGATACGGAC gave a switch fluorescence ratio of 1.55. Sequence AGATACTCCT has a switch fluorescence ratio of 2.33. Work on AGATAGTAAA yielded a switch fluorescence ratio of 0.991. With AGATAGTTAT the switch fluorescence ratio was 0.98. In the case of AGATATATCA, the switch fluorescence ratio is reported as 1.01. With AGATATCACC the switch fluorescence ratio was 1.04. For AGATATGAGT, the switch fluorescence ratio was 0.947. Sequence AGATATGGGG has a switch fluorescence ratio of 0.958. With AGATATTC the switch fluorescence ratio was 1.04. AGATCAATGC showed a switch fluorescence ratio of 1.51. AGATCACCTG showed a switch fluorescence ratio of 1.14. AGATCAGCT showed a switch fluorescence ratio of 0.992. Sequence AGATCAGGGT has a switch fluorescence ratio of 0.981. With AGATCAGTTA the switch fluorescence ratio was 1.01. AGATCATGCA showed a switch fluorescence ratio of 0.989. Work on AGATCGCACT yielded a switch fluorescence ratio of 1.06. Sequence AGATCTCGCT has a switch fluorescence ratio of 0.981. AGATCTTAG was tested, and the switch fluorescence ratio was 1. For AGATGAGTTT, the switch fluorescence ratio was 1.01. Sequence AGATGCCCCT has a switch fluorescence ratio of 1.1. For AGATGGAATA, the switch fluorescence ratio was 1.01. Sequence AGATGGGCTT has a switch fluorescence ratio of 0.979. AGATGTTACG was tested, and the switch fluorescence ratio was 1.01. Work on AGATGTTATG yielded a switch fluorescence ratio of 0.965. AGATTAAAAA gave a switch fluorescence ratio of 1.1. In the case of AGATTAGACA, the switch fluorescence ratio is reported as 0.971. AGATTCTCG gave a switch fluorescence ratio of 0.981. AGATTGACTG showed a switch fluorescence ratio of 0.981. AGATTGCTTT showed a switch fluorescence ratio of 1. In the case of AGATTGGCTC, the switch fluorescence ratio is reported as 0.997. With AGATTTATT the switch fluorescence ratio was 1.03. Work on AGATTTTAAA yielded a switch fluorescence ratio of 0.954. AGCAAAAAG was tested, and the switch fluorescence ratio was 1.09. AGCAAAAGAG showed a switch fluorescence ratio of 1.05. AGCAAAATGC showed a switch fluorescence ratio of 1.23. Work on AGCAAACGCG yielded a switch fluorescence ratio of 1.04. AGCAAAGAGA was tested, and the switch fluorescence ratio was 0.998. Work on AGCAAAGCGG yielded a switch fluorescence ratio of 0.971. For AGCAAATTAA, the switch fluorescence ratio was 1.03. With AGCAACGAGT the switch fluorescence ratio was 0.983. For AGCAACGCGG, the switch fluorescence ratio was 1.05. In the case of AGCAAGGCTC, the switch fluorescence ratio is reported as 3. Sequence AGCAAGGTCA has a switch fluorescence ratio of 1.09. In the case of AGCAATAAGA, the switch fluorescence ratio is reported as 1.9. In the case of AGCAATAGTA, the switch fluorescence ratio is reported as 2.25. Sequence AGCAATGGCT has a switch fluorescence ratio of 1.24. With AGCACATCAC the switch fluorescence ratio was 1.81. Sequence AGCACCTGAT has a switch fluorescence ratio of 1.09.
